Reference: PubChem BioAssay (NCI)
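Tested at 5 concentrations; 48 h exposure; 96-well plates; endpoints linearly interpolated, else capped at highest concentration. At the GI50, growth is halved. TGI denotes the concentration required for complete inhibition of growth.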

tested on: NCI-H322M lung; experiment: growth of human tumour cells (NCI), 48 h

| Compound | GI50 | TGI |
| --- | --- | --- |
| N#CC1=C(N)Oc2c(sc3c(Br)cccc23)C1c1ccc(Br)cc1 (stereo not drawn) | 4790 nM | 24 µM |
| O=[N+]([O-])c1cc2c(c([N+](=O)[O-])c1)NCc1ccccc1O2 | – | > 100 µM |
| CN(C)CCNC(=O)c1cccc2[nH]c(-c3cccnc3)nc12 | – | 72.5 µM |
| C=CCc1ccccc1CC1(OCC)OC(=O)c2ccccc21 (stereo not drawn) | – | > 100 µM |
| COc1cc(-n2cc(-c3ccc(Cl)cc3)nc2SCc2cccc(C#N)c2)cc(OC)c1OC | 36000 nM | > 100 µM |
| O=C(c1ccccc1)[C@@H]1C[C@H](Sc2ccccc2)c2cc(Cl)ccc2N1 | – | > 100 µM |
| Cc1ccc(C)n1-c1ccccc1C1C=CN(C(=O)OC(C)(C)C)C=C1 | – | > 100 µM |
| O=c1oc2cc(N=Cc3ccc4c(c3)OCO4)ccc2c2ccccc12 | – | > 100 µM |
| COc1ccc(S(=O)(=O)Nc2cc(/C=C\c3cc(OC)c(OC)c(OC)c3)ccc2OC)cc1 | 430 nM | > 100 µM |
| COC(=O)CN1SC2(SC13C(C)(C)C(=O)C3(C)C)C(C)(C)C(=O)C2(C)C | – | > 100 µM |
| COc1c(Br)cc(/C=C(\C#N)c2cccnc2)cc1Br | – | > 100 µM |
| N=[N+]=CC(=O)CCC(NC(=O)C(CCC(=O)C=[N+]=N)NC(=O)CCC(N)C(=O)O)C(=O)O (stereo not drawn) | – | > 100 µM |
| Cc1ccc(C2SC(N)=Nc3c2c(C)nn3C(=O)c2ccccc2O)cc1 (stereo not drawn) | – | > 10 µM |
| COc1cccc(OCCCN)c1-c1cc(Nc2cnc(C#N)cn2)n[nH]1 | 16.8 nM | 11.1 µM |
| COc1ccc(S(=O)(=O)N/N=C/c2cc(I)cc([N+](=O)[O-])c2O)cc1OC | – | > 100 µM |
| COc1ccc(N2C(=O)C3c4[nH]c5ccccc5c4C4CC(C)CC(C)C4C3C2=O)cc1 (stereo not drawn) | – | > 100 µM |
| OC(c1cc(-c2ccc(Cl)cc2)nc2ccccc12)C1CCCCN1 (stereo not drawn) | – | 6.46 µM |
| COc1ccc(NC(=O)COCCOCCNC[C@@H]2C(=O)O[C@H]3[C@H]2CC/C(COC(=O)OC/C2=C/CC[C@@]4(C)O[C@H]4[C@H]4OC(=O)[C@@H](CN(C)C)[C@@H]4CC2)=C\CC[C@@]2(C)O[C@@H]32)c(O)c1C(N)=O | > 50000 nM | > 50 µM |
| Cc1ccc(N=Nc2ccc(N)cc2C)c(S(N)(=O)=O)c1 | – | > 100 µM |
| C=CC[C@@]1([C@H](C=C)COCc2ccc(OC)cc2)CC[C@]2(C)OC(C)(C)[C@@H](c3ccccc3)N2C1=S | – | > 100 µM |
| CC1(c2cccc(Cl)c2)CC(c2cccc(Cl)c2)=C(C#N)C(=C(C#N)C#N)N1 (stereo not drawn) | – | 42.5 µM |
| O=C(O)NCC1CCCCC1 (tested in a mixture with another compound) | – | > 100 µM |
| COc1cc(Cl)cc(-c2nn(-c3cccc(NC(=O)Nc4cc(C(F)(F)F)cc(C(F)(F)F)c4)c3)cc2-c2ccncc2)c1 | 1270 nM | 11.5 µM |
| CNC(=O)CC1NC(=O)c2csc(n2)-c2ccc(-c3nc(C4=NC(C(=O)N5CCCC5C(N)=O)CO4)cs3)nc2-c2csc(n2)-c2csc(n2)C(C(C)C)NC(=O)CNC(=O)c2csc(n2)C(C(C)C)NC(=O)c2nc1sc2C (stereo not drawn) | > 25000 nM | > 25 µM |

| Compound | GI50 | TGI |
| --- | --- | --- |
| CCOC(=O)/C(=C\c1cccs1)P(=O)(OCC)OCC | – | > 100 µM |
| NC1=C(c2nc(-c3ccccc3)cs2)C(c2ccc(Br)cc2)c2c(c3ccccc3oc2=O)O1 (stereo not drawn) | > 150 µg/mL | > 150 µg/mL |
| CC(C)(C)OC(=O)N1CCC2(C)CC(=O)CC=C12 (stereo not drawn) | – | > 100 µM |
| O=C(Nc1ccccc1)n1[nH]c(=O)n(-c2ccccc2)c1=O | – | > 100 µM |
| CC(=O)C(CN(Cc1ccccc1)Cc1ccccc1)C(c1ccccc1)c1c(O)c2ccccc2oc1=O (stereo not drawn) | – | > 100 µM |
| O=c1n(-c2ccccc2)c(=O)n2n1C1Cc3ccccc3C12 (stereo not drawn) | – | > 100 µM |
| CC[C@@]1(OC(=O)CN)C(=O)OCc2c1cc1n(c2=O)Cc2cc3c(N)cccc3nc2-1 | 27.8 nM | – |
| S=C1CSc2c(ccc3ccccc23)N1 | – | > 100 µM |
| O=C(O)CCSC(=O)Nc1ccccc1F | – | > 100 µM |
| O=C1CCCC1C(O)(C(F)(F)F)C(F)(F)F (stereo not drawn) | – | > 100 µM |
| Cc1cc(NS(=O)(=O)c2ccc(NC(=O)c3ccc(Cl)c4c(Nc5ccc(S(=O)(=O)N=C(N)N)cc5)c5ccccc5nc34)cc2)no1 | – | > 100 µM |
| C=C1C(=O)O[C@H]2[C@H]1CCC(/C=N/c1ncc(Br)cc1N)=C\CC[C@@]1(C)O[C@@H]21 | 10300 nM | 22.2 µM |
| O=c1nc(NC(c2ccccc2)(c2ccccc2)c2ccccc2)ccn1CCNCCn1ccc(NC(c2ccccc2)(c2ccccc2)c2ccccc2)nc1=O | – | 35.5 µM |
| C=C(C)[C@@H]1CC[C@]2(C)[C@H](CC=C3[C@@H]4[C@@H](C)[C@H](C)CC[C@]4(C(N)=O)CC[C@]32C)[C@@]1(C)CCC#N | 7130 nM | > 100 µM |
| CC(=O)OCC(=O)[C@@]12OC(C)(C)O[C@@H]1C[C@H]1[C@@H]3CC=C4C[C@@H](O)CC[C@]4(C)[C@H]3CC[C@@]12C | – | > 100 µM |
| COc1ccc(-n2cc(-c3cc(OC)c(OC)c(OC)c3)nc2SCc2ccccc2)cc1OC | > 100000 nM | > 100 µM |
| COc1ccc(N2C(=O)C(C)SC2c2cc3cc(Br)ccc3nc2Cl)cc1 (stereo not drawn) | – | > 100 µM |
| CCN1Cc2c(ccc(F)c2C#N)O[C@@H](C)CNC(=O)c2c(N)nn3ccc1nc23 | 3020 nM | 36.2 µM |
| C[C@]12CCC(=O)C(O)=C1CC[C@@H]1C2CC[C@]2(C)Nc3c(cnn3-c3ccccc3)CC12 (stereo partly drawn) | – | > 100 µM |
| CN(C)CC1C(=O)O[C@H]2[C@H]1CC/C(COC(=O)c1cc3ccccc3[nH]1)=C\CC[C@@]1(C)O[C@@H]21 (stereo partly drawn) | 11900 nM | 25.8 µM |
| O=C1CCCC(=O)N1CCc1c[nH]c2ccccc12 | – | > 100 µM |
| CC(=O)N(C(C)=O)n1c(-c2ccccc2)n[nH]c1=O | – | > 100 µM |
| COCn1cnc2c(=O)n(-c3ccc(OC)cc3)c(=S)n(-c3ccc(OC)cc3)c21 | – | > 100 µM |
| COc1ccc(/C=C(\C#N)n2nnc3ccccc32)cc1 | 527 nM | > 35.3 µM |

| Compound | GI50 | TGI |
| --- | --- | --- |
| Cc1ccc(/C=C2\CN(C)CC3C2=NN(c2ccccc2)C3c2ccc(C)cc2)cc1 (stereo not drawn) | – | > 100 µM |
| CN1CC[C@]2(C)c3cc(O)ccc3CC3CCCC1C32C (stereo partly drawn) | – | > 100 µM |
| NC(=O)C1Cc2cc3c(cc21)OCO3 (stereo not drawn) | – | > 100 µM |
| COc1ccc(NC(=O)/C(=N/NC(N)=S)C2C(=O)NC(=S)NC2=O)c(OC)c1 | – | > 100 µM |
| COc1ccc(/C=C2\N=C(SC)N(CN3CCCCC3)C2=O)cc1 | – | > 100 µM |
| CC(=O)c1cccc(Nc2nc3ccc(Cl)cc3c3[nH]c4ccccc4c23)c1 | – | > 100 µM |
| Cc1cc(NCc2cc(Nc3ccnc4cc(Cl)ccc34)ccc2F)nc(N2CCN(C)CC2)n1 | 2410 nM | 7.63 µM |
| CN(C)CC1CCCC(CN(C)C)C1=NOC(=O)c1ccccc1 (stereo not drawn) | – | > 100 µM |
| C[C@]12C[C@@H](c3ccccc3)Nc3ccccc3N1C(c1ccccc1)=NO2 | – | > 100 µM |
| CSc1sc(=S)sc1C(=O)N(C)c1ccccc1 | – | > 100 µM |
| N#CCCN(c1ccc(C=Nc2ccccc2Cl)cc1)S(=O)(=O)c1ccccc1 | – | > 100 µM |
| CC1=C(C)C1[N+](=O)[O-] | – | > 100 µM |
| Cc1ccc(N2CCC3(CC2)OCCO3)cc1 | – | > 100 µM |
| O=C(O)CNS(=O)(=O)c1ccc(NC(=O)CI)cc1 | – | > 100 µM |
| Nc1ccc(S(=O)(=O)Nc2ccc(Nc3c4ccccc4nc4ccccc34)cc2)cc1 | – | 18.5 µM |
| O=C(Nc1ccc2[nH]c(=S)sc2c1)Nc1ccccc1F | 23300 nM | > 100 µM |
| CN(N)/N=N/c1nc[nH]c1[N+](=O)[O-] | – | > 100 µM |
| CCN(CC)c1c(-c2c(N(CC)CC)c(OC(C)=O)c3sccn3c2=O)c(=O)n2ccsc2c1OC(C)=O | – | > 100 µM |
| COC(=O)C1=C(C(=O)OC)SC(=C(Cl)C(=S)Nc2ccccc2O)S1 | 682 nM | > 50 µM |
| O=[N+]([O-])c1cc(C2SCc3nc4ccccc4n32)ccc1Cl (stereo not drawn) | – | > 100 µM |
| NC(=S)N/N=C1/CCCC2CCCC[C@@H]12 (stereo partly drawn) | – | > 100 µM |
| Nc1c([N+](=O)[O-])cc2c3c(cccc13)CC2 | – | > 100 µM |
| COc1cc2c(cc1OC)[C@H]1C(COC(=O)c3ccccc3)CSC(=Nc3ccccc3)N1CC2 (stereo partly drawn) | – | > 100 µM |
| C#C[C@]1(O)CC[C@H]2[C@@H]3CCC4=C/C(=N/NC(=O)c5cccc6cc7ccccc7nc56)CC[C@@H]4[C@H]3CC[C@@]21CC | – | > 100 µM |

| Compound | GI50 | TGI |
| --- | --- | --- |
| Cc1cc(Cc2cc(C)cc(C(C)(C)C)c2O)c(O)c(Cc2cc(C)cc(C(C)(C)C)c2O)c1 | – | 9.68 µM |
| C/C=C(\C)C(=O)OC1C(C)=C2C(C1OC(=O)CCCC)C(C)(OC(C)=O)CC(OC(=O)CCCC)C1(O)C2OC(=O)C1(C)O (stereo not drawn) | – | > 53.8 µM |
| CCN(CC)CCn1c2ccccc2c(=O)c2c(O)ccc(O)c21 | – | 72.9 µM |
| Cc1[nH]c(=O)n2c(C)nnc2c1C(=O)Nc1cc(Cl)cc(Cl)c1 | – | > 100 µM |
| Cc1ccc(C2=C(C#N)C(=O)N3CCN=C3S2)cc1 | – | > 100 µM |
| C=C1C(=O)O[C@H]2[C@H](OC(C)=O)[C@@H](C)CCC/C(C)=C/CC[C@@]3(C)O[C@@H]3C[C@@H]12 | – | 20.4 µM |
| CCOC(=O)[C@@H]1CCN2CN(c3ccc(OC)cc3)N=C(c3ccccc3)[C@@]12c1ccccc1 | – | > 100 µM |
| CCCCCCCCCCC(C(O)c1ccccc1)N1CCCCC1 (stereo not drawn) | 2260 nM | 6.24 µM |
| CNCCNc1c2c(c(NCCNC)c3[nH]ccc13)C(=O)c1ccccc1C2=O | 77.9 nM | 0.375 µM |
| COc1cc(/C=C/C(=O)c2c(C)nc3ccccc3c2/C=C/c2ccc(C)cc2)cc(OC)c1OC | 2240 nM | 6.62 µM |
| C1CSC(=[N+]2CC[N+](=C3SCCS3)CC2)S1 | – | > 100 µM |
| COc1cc(/C=N/NC(=O)c2cnn3c2NC(c2ccccc2)C3)ccc1Oc1ccccc1 (stereo not drawn) | 1690 nM | 9.87 µM |
| O=C(O)CCc1cccc2c1oc1c(CCC(=O)O)cccc12 | – | > 100 µM |
| COC(=O)[C@@H](NC(=O)N(CCC#N)CCCN(C(=O)N[C@H](Cc1ccccc1)C(=O)OC)c1ccccc1)C(C)C | – | > 100 µM |
| Cc1c(F)c(N)c2c(=O)cc(-c3ccc(N)c(F)c3)oc2c1F | – | 60.3 µM |
| Cc1ccc2nc(-c3ccccc3)c(N=O)n2c1 | – | > 100 µM |
| O=C1C2C=CC(C2)C(c2ccc(O)cc2)N1O (stereo not drawn) | – | > 100 µM |
| Cc1cc2sc(C)[n+](CCCOS(=O)(=O)[O-])c2cc1C | – | > 100 µM |
| CCOC(=O)/C(=C\c1ccc(C#N)cc1)C(C)=O | – | > 100 µM |
| Cn1ccc2c(C(=O)c3ccccc3)cccc2c1=O | – | > 100 µM |
| COc1ccc(C(=O)/C=C/c2ccc3c(c2)OCO3)c(OCc2ccccc2)c1 | – | > 100 µM |
| CC(C)(C)C(=O)CP(=O)(O)O | – | > 100 µM |
| COc1ccc(/C(=N\O)c2cc(C)c(OC)c(C)c2)cc1O | 29.7 nM | > 100 µM |
| O=C(O)C1C(C(=O)O)C23CC2(C(=O)O)C2(C(=O)O)CCC3=C3CCCC312 (stereo not drawn) | – | > 100 µM |
